Results reported in the supplement of paper PMC10126150.
Sequences with one replicate were seen in a single cluster, so their values are uncertain.

System: ATP
Test: switch fluorescence ratio, 500 uM ATP over buffer (Cy3 cluster intensity, sum of 5 cycles each) (fold (ratio)); higher = stronger signal-on switching upon ATP binding; sequences stand for … in TCGTCGGCAGCGTCAGATGTGTATAAGAGACAGTTTTTTTTTTTTTTTTTTTTTTTTT…TC
Details: aptamer strand: ATP DNA aptamer (quencher-CACCTGGGGGAGTATTGCGGAGGAAGG + anchor), 100 nM annealed; ATP concentration: 500 uM; one replicate
Summary of the method: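 The fluorescence ratio divides summed target-cycle Cy3 intensity by summed buffer-cycle Cy3 intensity for each cluster and is averaged per switch-domain sequence. Cy3-labelled switching-strand clusters on a modified Illumina MiSeq flow-cell were annealed to 100 nM quencher-labelled ATP aptamer, then imaged in selection buffer and again after 15 min with 500 uM ATP at 22 °C. Five such cycles were run, with NaOH stripping and re-annealing between them, and clusters outside 100-1000 RFU were excluded.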
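Note: ATP exposure 15 min at 22 °C before imaging.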

Row | Sequence | switch fluorescence ratio
1 | CACCCTTATC | 1.11
2 | GACATATGTT | 1
3 | GAAACTCGG | 1.03
4 | CCACCTCAAA | 1.56
5 | CCCAGCATGA | 2.52
6 | GATTGGTTCT | 0.999
7 | ATAGTTTATT | 0.993
8 | TTATGGGTGC | 1.01
9 | TCTACTGTCT | 0.991
10 | TCGAACATCG | 0.965
11 | CTTCAAGCGG | 1.1
12 | ACAGTGTCGG | 1.01
13 | TAGAGCAG | 1.01
14 | ACTTGGAGAA | 1.05
15 | AGACGCGGGC | 1.08
16 | TTAAGGAAG | 0.993
17 | ATGATCGCAC | 1.55
18 | CCTTGTCTCG | 1.09
19 | ATCGGATGTG | 0.905
20 | TTGTCTACTG | 0.969
21 | GTTAGTTTAC | 1.01
22 | TAGCGCACGA | 1
23 | AAGTAGTTAA | 1.05

Row | Sequence | switch fluorescence ratio
24 | CTTGAGCCTG | 1.01
25 | GGTGGGTGAC | 1.01
26 | GCAAGGACTT | 1.06
27 | GTTTAAAAAC | 1.12
28 | ACTACGGG | 1
29 | ACCCGGAATG | 1.84
30 | TTTACTTCG | 1.05
31 | TCGTTGGAAT | 1.04
32 | TGTACTTGCA | 1.02
33 | TACAGGAGAA | 1.04
34 | TAAGGCTATG | 0.996
35 | AGAAAAGAGG | 0.978
36 | TTGCCTGAG | 1.1
37 | CAGAAGAGGC | 1.06
38 | CCATGGAAGT | 0.98
39 | CTCGGGTTCT | 0.986
40 | AATGTCGGG | 1
41 | TTCCCCGAAA | 2.46
42 | AAACGCACG | 1.4
43 | TTTACTTATA | 1.03
44 | AAGGCCACCA | 1.23
45 | GACGTATGCT | 0.985
46 | ATACCGTCAA | 1.3

Row | Sequence | switch fluorescence ratio
47 | AACGGCAAAT | 1.06
48 | ACATGGGCTT | 0.962
49 | GCGCTTTAAT | 1.01
50 | ACCAGTTATC | 1.02
51 | ACTCCTGGAT | 1.11
52 | TGTCACTCT | 0.97
53 | AGAAAGGCTG | 1
54 | TACACATGCA | 1.11
55 | TCCGTTCATT | 1.01
56 | TGGCGTACTG | 0.99
57 | TTCGGACACC | 0.959
58 | AGCTTGGC | 1.01
59 | CGAGTGTGAT | 0.993
60 | ACGTCGAAAA | 1.01
61 | ATTTGGGTTG | 0.973
62 | CGGGTACCG | 0.99
63 | GGTGAGAGAG | 0.994
64 | ATCCACGTTC | 1.05
65 | TCGCCGTGGT | 1.08
66 | ATATTGGGTC | 1.03
67 | GCGTGAAATG | 0.999
68 | TTTGAGCACA | 1.05
69 | CACGGAGGAT | 1.01

Row | Sequence | switch fluorescence ratio
70 | GGGTTGAGCC | 0.999
71 | CCGGCATAAG | 1.33
72 | CAATTGACGC | 1.02
73 | CATGTCCGGG | 1.03
74 | CCATAATGCG | 1.04
75 | TCATTGACAC | 1.1
76 | AAAACCGCCA | 1.46
77 | GGCATTTGGG | 0.991
78 | CTGGCAGACA | 0.993
79 | TGAGGGGCAT | 1.02
80 | CTGGCGCAGC | 1.03
81 | GCTATGTGCC | 0.978
82 | GTACGAGGAA | 1.03
83 | TATCCTTCAA | 1.04
84 | TCGTATACCA | 1.04
85 | GTCTGTGTCG | 0.972
86 | GCGAGCAGAA | 0.987
87 | TTCTCACGGG | 1.26
88 | TCCCGTTTCG | 1.02
89 | AGCCGGGACA | 1.02
90 | TGGTGGAGCT | 0.948
91 | AACAACTATT | 1.01
92 | GTCAACCAAG | 1.02

Row | Sequence | switch fluorescence ratio
93 | TCTGCGTGGG | 1.05
94 | CTTATGGAGA | 1.02
95 | CAGGACTTGG | 1
96 | TCTGCTGGTG | 1.07
97 | CCACGTTCCA | 1.02
98 | TTTTCTTTAG | 1.03
99 | GCTATCAAGA | 1
100 | ATGTCGATCG | 1.02
101 | ACTTGTTAGC | 0.996
102 | CATCGGGATT | 1.01
103 | AAGGTCTTGA | 1.02
104 | GAAATATCGA | 0.991
105 | TTTTATGAAT | 0.976
106 | ACAGCGGGGA | 1.02
107 | GAAGTGCCGG | 1.05
108 | GATTTTCCCC | 0.989
109 | TGAAGGTGTA | 1.05
110 | CAAATGGATA | 1.01
111 | CCGGTCTTCG | 1.01
112 | GGAGGTGAAT | 1.05
113 | TGGTCTAGAC | 0.991
114 | CTGGGTAGCG | 0.982
115 | AGTCAACGAC | 0.995

Row | Sequence | switch fluorescence ratio
116 | AATAGGCAC | 0.981
117 | TTACAGCTCA | 0.983
118 | TGCCTGCAGA | 1.02
119 | TTACGGGTCA | 1.01
120 | AGGGCGTGGG | 1.02
121 | TGCTTGTGGT | 0.969
122 | AACGGCAGTC | 1.08
123 | TTAATGACGG | 1.01
124 | TTATCTTAGG | 0.985
125 | CTAAGACTAG | 0.953
126 | ACGAGAGAGT | 1.04
127 | AGTAGAACAG | 0.965
128 | GGCCAATGTT | 0.998
129 | TTGCTCCATC | 1
130 | GTAATCCTAG | 0.984
131 | AATTACATCA | 1.02
132 | AGGATATCGC | 1.03
133 | CCACCCAACA | 1.37
134 | TATACAGAGT | 1.03
135 | GTAGTCGTCT | 0.899
136 | TCCTTCTCAT | 1.13
137 | GAATGTTTCT | 0.991
138 | CGAGAACAG | 1.01

Row | Sequence | switch fluorescence ratio
139 | CGTTAATGAG | 0.989
140 | TTTGACGATA | 1.02
141 | AGGCTAATGG | 1.04
142 | ACTTAAGCCT | 1.18
143 | CAACGTCCAC | 1.45
144 | ATCCTAATGT | 1.03
145 | ACTGAGCC | 1.08
146 | ACAGAGTCGA | 1.01
147 | TTTATGGGAG | 0.979
148 | CTGGGGAATA | 1.04
149 | CGACCAGCCT | 1.07
150 | GGACGGAGGG | 1.04
151 | AATTAGTTCC | 1.09
152 | GTCATGGGAC | 1.02
153 | ACCATTCGGG | 1.01
154 | AGCGATAACC | 1.45
155 | TGAACGTCGA | 1.1
156 | AATTTCCCTG | 1.28
157 | AACAGTATCT | 1.06
